# Reference: the supplement of paper PMC8728848
# Some of the results follow.
# B1: CTLY 1 (Homo sapiens), Q6ZS10 (protein)
# chain: AITCPEGWLPFEGKCYYFSPSTKSWDEARMFCQENYSHLVIINSFAEHNFVAKAHGSPRVYWLGLNDRAQEGDWRWLDGSPVTLSFWEPEEPNNIHDEDCATMNKGGTWNDLSCYKTTYWICERKGLNDIFEAQKIEWHE
# What was measured:
# Test in all cases: glycan array binding signal (z-score within array); higher = stronger binding
# Conditions in all cases: glycan notation: IUPAC condensed, linker removed
# Fuc(a1-2)[Gal(a1-3)]Gal = biological target: Fuc(a1-2)[Gal(a1-3)]Gal
# How it was run: (§1)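 From the Consortium for Functional Glycomics database, 3228 arrays were curated, keeping only those whose protein sequence was available. Binding is given as a within-array Z-score averaged across arrays sharing a protein sequence and across linkers. Negative Z-scores can be read as non-binding.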
# [1] = biological target: Fuc(a1-2)[Gal(a1-3)]Gal(b1-3)GlcNAc
# How it was run: as §1
# [2] = biological target: Fuc(a1-2)[Gal(a1-3)]Gal(b1-3)GlcNAc(b1-2)Man(a1-3)[Fuc(a1-2)[Gal(a1-3)]Gal(b1-3)GlcNAc(b1-2)Man(a1-6)]Man(b1-4)GlcNAc(b1-4)GlcNAc
# How it was run: as §1
# [3] = biological target: Fuc(a1-2)[Gal(a1-3)]Gal(b1-4)Glc
# How it was run: as §1
# [4] = biological target: Fuc(a1-2)[Gal(a1-3)]Gal(b1-4)GlcNAc
# How it was run: as §1
# [5] = biological target: Fuc(a1-2)[Gal(a1-3)]Gal(b1-4)GlcNAc(b1-2)Man(a1-3)[Fuc(a1-2)[Gal(a1-3)]Gal(b1-4)GlcNAc(b1-2)Man(a1-6)]Man(b1-4)GlcNAc(b1-4)GlcNAc
# How it was run: as §1
# [6] = biological target: Fuc(a1-2)[Gal(a1-3)]Gal(b1-4)[Fuc(a1-3)]GlcNAc
# How it was run: as §1
# [7] = biological target: Fuc(a1-2)[Gal(a1-4)]Gal(b1-4)GlcNAc
# How it was run: as §1
# [8] = biological target: Fuc(a1-2)[GalNAc(a1-3)]Gal
# How it was run: as §1
# [9] = biological target: Fuc(a1-2)[GalNAc(a1-3)]Gal(b1-3)GalNAc(a1-3)[Fuc(a1-2)]Gal(b1-4)GlcNAc
# How it was run: as §1
# [10] = biological target: Fuc(a1-2)[GalNAc(a1-3)]Gal(b1-3)GlcNAc
# How it was run: as §1
# [11] = biological target: Fuc(a1-2)[GalNAc(a1-3)]Gal(b1-3)GlcNAc(b1-2)Man(a1-3)[Fuc(a1-2)[GalNAc(a1-3)]Gal(b1-3)GlcNAc(b1-2)Man(a1-6)]Man(b1-4)GlcNAc(b1-4)GlcNAc
# How it was run: as §1
# [12] = biological target: Fuc(a1-2)[GalNAc(a1-3)]Gal(b1-4)Glc
# How it was run: as §1
# [13] = biological target: Fuc(a1-2)[GalNAc(a1-3)]Gal(b1-4)GlcNAc
# How it was run: as §1
# [14] = biological target: Fuc(a1-2)[GalNAc(a1-3)]Gal(b1-4)GlcNAc(b1-2)Man(a1-3)[Fuc(a1-2)[GalNAc(a1-3)]Gal(b1-4)GlcNAc(b1-2)Man(a1-6)]Man(b1-4)GlcNAc(b1-4)GlcNAc
# How it was run: as §1
# [15] = biological target: Fuc(a1-2)[GalNAc(a1-3)]Gal(b1-4)GlcNAc(b1-3)Gal(b1-4)GlcNAc
# How it was run: as §1
# [16] = biological target: Fuc(a1-2)[GalNAc(a1-3)]Gal(b1-4)GlcNAc(b1-3)Gal(b1-4)GlcNAc(b1-3)Gal(b1-4)GlcNAc
# How it was run: as §1
# [17] = biological target: Fuc(a1-2)[GalNAc(a1-3)]Gal(b1-4)[Fuc(a1-3)]GlcNAc
# How it was run: as §1
# [18] = biological target: Fuc(a1-2)[GalNAc(a1-4)]Gal(b1-4)GlcNAc
# How it was run: as §1
# [19] = biological target: Fuc(a1-2)[GalNAc(b1-3)]Gal
# How it was run: as §1
# Fuc(a1-3)GlcNAc = biological target: Fuc(a1-3)GlcNAc
# How it was run: as §1
# [20] = biological target: Fuc(a1-3)[Gal(b1-4)]Glc6S
# How it was run: as §1
# [21] = biological target: Fuc(a1-3)[Gal(b1-4)]GlcNAc
# How it was run: as §1
# [22] = biological target: Fuc(a1-3)[Gal(b1-4)]GlcNAc(b1-2)Man(a1-3)[Fuc(a1-3)[Gal(b1-4)]GlcNAc(b1-2)Man(a1-6)]Man(b1-4)GlcNAc(b1-4)GlcNAc
# How it was run: as §1
# [23] = biological target: Fuc(a1-3)[Gal(b1-4)]GlcNAc(b1-3)Gal(b1-3)[Fuc(a1-4)]GlcNAc
# How it was run: as §1
# [24] = biological target: Fuc(a1-3)[Gal(b1-4)]GlcNAc(b1-3)GalNAc
# How it was run: as §1
# [25] = biological target: Fuc(a1-3)[Gal(b1-4)]GlcNAc(b1-4)Gal(b1-4)[Fuc(a1-3)]GlcNAc
# How it was run: as §1
# [26] = biological target: Fuc(a1-3)[Gal(b1-4)]GlcNAc(b1-4)Gal(b1-4)[Fuc(a1-3)]GlcNAc(b1-4)Gal(b1-4)[Fuc(a1-3)]GlcNAc
# How it was run: as §1
# [27] = biological target: Fuc(a1-3)[Gal(b1-4)]GlcNAc(b1-6)[Gal(b1-3)GlcNAc(b1-3)]Gal(b1-4)Glc
# How it was run: as §1
# [28] = biological target: Fuc(a1-3)[Gal(b1-4)]GlcNAc6S
# How it was run: as §1
# [29] = biological target: Fuc(a1-3)[Gal3S(b1-4)]GlcNAc
# How it was run: as §1
# [30] = biological target: Fuc(a1-3)[Gal3S(b1-4)]GlcNAc6S
# How it was run: as §1
# [31] = biological target: Fuc(a1-3)[GalNAc(b1-4)]GlcNAc
# How it was run: as §1
# Fuc(a1-4)GlcNAc = biological target: Fuc(a1-4)GlcNAc
# How it was run: as §1
# Fuc(b1-3)GlcNAc = biological target: Fuc(b1-3)GlcNAc
# How it was run: as §1
# Gal(a1-2)Gal = biological target: Gal(a1-2)Gal
# How it was run: as §1
# Gal(a1-3)Gal = biological target: Gal(a1-3)Gal
# How it was run: as §1
# Gal(a1-3)Gal(b1-3)GlcNAc = biological target: Gal(a1-3)Gal(b1-3)GlcNAc
# How it was run: as §1
# [32] = biological target: Gal(a1-3)Gal(b1-3)GlcNAc(b1-2)Man(a1-3)[Gal(a1-3)Gal(b1-3)GlcNAc(b1-2)Man(a1-6)]Man(b1-4)GlcNAc(b1-4)GlcNAc
# How it was run: as §1
# [33] = biological target: Gal(a1-3)Gal(b1-3)[Fuc(a1-4)]GlcNAc(b1-2)Man(a1-3)[Gal(a1-3)Gal(b1-3)[Fuc(a1-4)]GlcNAc(b1-2)Man(a1-6)]Man(b1-4)GlcNAc(b1-4)GlcNAc
# How it was run: as §1
# Gal(a1-3)Gal(b1-4)Glc = biological target: Gal(a1-3)Gal(b1-4)Glc
# How it was run: as §1
# Gal(a1-3)Gal(b1-4)GlcNAc = biological target: Gal(a1-3)Gal(b1-4)GlcNAc
# How it was run: as §1
# [34] = biological target: Gal(a1-3)Gal(b1-4)GlcNAc(b1-3)GalNAc
# How it was run: as §1
# [35] = biological target: Gal(a1-3)Gal(b1-4)[Fuc(a1-3)]GlcNAc
# How it was run: as §1
# [36] = biological target: Gal(a1-3)Gal(b1-4)[Fuc(a1-3)]GlcNAc(b1-2)Man(a1-3)[Gal(a1-3)Gal(b1-4)[Fuc(a1-3)]GlcNAc(b1-2)Man(a1-6)]Man(b1-4)GlcNAc(b1-4)GlcNAc
# How it was run: as §1
binder,measurement,setting,value
B1,glycan array binding signal (z-score),Fuc(a1-2)[Gal(a1-3)]Gal,-0.231
same,glycan array binding signal (z-score),[1],-0.199
same,glycan array binding signal (z-score),[2],-0.025
same,glycan array binding signal (z-score),[3],-0.246
same,glycan array binding signal (z-score),[4],-0.244
same,glycan array binding signal (z-score),[5],-0.174
same,glycan array binding signal (z-score),[6],-0.207
same,glycan array binding signal (z-score),[7],-0.193
same,glycan array binding signal (z-score),[8],-0.21
same,glycan array binding signal (z-score),[9],-0.242
same,glycan array binding signal (z-score),[10],-0.255
same,glycan array binding signal (z-score),[11],-0.143
same,glycan array binding signal (z-score),[12],-0.246
same,glycan array binding signal (z-score),[13],-0.225
same,glycan array binding signal (z-score),[14],-0.236
same,glycan array binding signal (z-score),[15],-0.256
same,glycan array binding signal (z-score),[16],-0.218
same,glycan array binding signal (z-score),[17],5.5
same,glycan array binding signal (z-score),[18],-0.177
same,glycan array binding signal (z-score),[19],-0.215
same,glycan array binding signal (z-score),Fuc(a1-3)GlcNAc,-0.163
same,glycan array binding signal (z-score),[20],0.111
same,glycan array binding signal (z-score),[21],-0.051
same,glycan array binding signal (z-score),[22],4.09
same,glycan array binding signal (z-score),[23],0.953
same,glycan array binding signal (z-score),[24],-0.221
same,glycan array binding signal (z-score),[25],0.526
same,glycan array binding signal (z-score),[26],4.47
same,glycan array binding signal (z-score),[27],-0.219
same,glycan array binding signal (z-score),[28],-0.066
same,glycan array binding signal (z-score),[29],0.198
same,glycan array binding signal (z-score),[30],0.914
same,glycan array binding signal (z-score),[31],-0.188
same,glycan array binding signal (z-score),Fuc(a1-4)GlcNAc,-0.24
same,glycan array binding signal (z-score),Fuc(b1-3)GlcNAc,-0.213
same,glycan array binding signal (z-score),Gal(a1-2)Gal,-0.245
same,glycan array binding signal (z-score),Gal(a1-3)Gal,-0.247
same,glycan array binding signal (z-score),Gal(a1-3)Gal(b1-3)GlcNAc,-0.241
same,glycan array binding signal (z-score),[32],-0.23
same,glycan array binding signal (z-score),[33],-0.04
same,glycan array binding signal (z-score),Gal(a1-3)Gal(b1-4)Glc,-0.245
same,glycan array binding signal (z-score),Gal(a1-3)Gal(b1-4)GlcNAc,-0.233
same,glycan array binding signal (z-score),[34],-0.25
same,glycan array binding signal (z-score),[35],0.004
same,glycan array binding signal (z-score),[36],-0.118
